Measurements from paper PMC3040723, “Three hydrophobic amino acids in Escherichia coli HscB make the greatest contribution to the stability of the HscB-IscU complex” (BMC Biochemistry, 2011).

Tests used:
Assay in all cases: ITC; 2.5-4 mM apo-IscU (injection syringe) titrated into 0.25-0.4 mM HscB (sample cell); 25 °C; 50 mM HEPES pH 7.5, 150 mM NaCl, 4 mM TCEP
Details in all cases: both partners purified
[1] = target: T1, HscB(T89A) (E. coli, UniProt P0A6L9 1-171, T89A)
T1 construct: HscB, Escherichia coli, single alanine substitution; source: Escherichia coli, purified (DEAE-cellulose, size exclusion chromatography)
T1 sequence (looked up): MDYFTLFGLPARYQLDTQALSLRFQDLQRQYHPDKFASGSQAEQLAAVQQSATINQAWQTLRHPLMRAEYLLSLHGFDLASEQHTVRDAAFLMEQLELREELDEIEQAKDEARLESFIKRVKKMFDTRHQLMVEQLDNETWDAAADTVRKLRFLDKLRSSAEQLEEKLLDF

[2] = target: T2, HscB(E97A, E100A, E104A) (E. coli, UniProt P0A6L9 1-171, E97A | E100A | E104A)
T2 construct: HscB, Escherichia coli, triple alanine substitution; also called (E97A, E100A, E104A) substitution; source: Escherichia coli, purified (DEAE-cellulose, size exclusion chromatography)
T2 sequence (looked up): T1 sequence (looked up) with A89T, E97A, E100A, E104A

[3] = target: T3, HscB(E100A) (E. coli, UniProt P0A6L9 1-171, E100A)
T3 construct: HscB, Escherichia coli, single alanine substitution; Uniformly 15N-labelled for the NMR experiments; source: Escherichia coli, purified (DEAE-cellulose, size exclusion chromatography)
T3 sequence (looked up): T1 sequence (looked up) with A89T, E100A

[4] = target: T4, HscB(K156A) (E. coli, UniProt P0A6L9 1-171, K156A)
T4 construct: HscB, Escherichia coli, single alanine substitution; source: Escherichia coli, purified (DEAE-cellulose, size exclusion chromatography)
T4 sequence (looked up): T1 sequence (looked up) with A89T, K156A

[5] = target: T5, HscB(R99A) (E. coli, UniProt P0A6L9 1-171, R99A)
T5 construct: HscB, Escherichia coli, single alanine substitution; source: Escherichia coli, purified (DEAE-cellulose, size exclusion chromatography)
T5 sequence (looked up): T1 sequence (looked up) with A89T, R99A

[6] = target: T6, HscB(L92A) (E. coli, UniProt P0A6L9 1-171, L92A)
T6 construct: HscB, Escherichia coli, single alanine substitution; source: Escherichia coli, purified (DEAE-cellulose, size exclusion chromatography)
T6 sequence (looked up): T1 sequence (looked up) with A89T, L92A

[7] = target: T7, HscB(R87A) (E. coli, UniProt P0A6L9 1-171, R87A)
T7 construct: HscB, Escherichia coli, single alanine substitution; source: Escherichia coli, purified (DEAE-cellulose, size exclusion chromatography)
T7 sequence (looked up): T1 sequence (looked up) with R87A, A89T

[8] = target: T8, HscB(L96A) (E. coli, UniProt P0A6L9 1-171, L96A)
T8 construct: HscB, Escherichia coli, single alanine substitution; Uniformly 15N-labelled for the NMR experiments; source: Escherichia coli, purified (DEAE-cellulose, size exclusion chromatography)
T8 sequence (looked up): T1 sequence (looked up) with A89T, L96A

B1: apo-IscU (natural protein, E. coli, UniProt P0ACD4 1-128, looked up)
chain: MAYSEKVIDHYENPRNVGSFDNNDENVGSGMVGAPACGDVMKLQIKVNDEGIIEDARFKTYGCGSAIASSSLVTEWVKGKSLDEAQAIKNTDIAEELELPPVKIHCSILAEDAIKAAIADYKSKREAK
notes: No tag is mentioned; purified by ion exchange and gel filtration, so probably untagged whole protein; source: Escherichia coli, purified (DEAE-cellulose, DEAE-Biogel, size exclusion chromatography)
- Kd [1]: 4 to 17 µM
- Kd [2]: ~30 µM
- Kd [3]: ~42 µM
- Kd [4]: 4 to 17 µM
- Kd [5]: ~53 µM
- Kd [6]: ~200 µM
- Kd [7]: ~36 µM
- Kd [8]: ~200 µM

Substitutions are numbered along the chain they refer to.
